# The whole screen tested about 310,000 compounds, of which about 14,000 (4.5%) showed an effect of 50% or more. The effect is printed as a negative number. The list shows a part of the results.
# Target: human ether-à-go-go-related gene (hERG) potassium channel (human, UniProt Q12809)
# Experiment: primary screen, population patch clamp on CHO cells stably expressing hERG
# 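Further: peak tail current of the secondary pulse compared with the same well before compound.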
# Chain of human ether-à-go-go-related gene (hERG) potassium channel (Q12809 whole entry, looked up): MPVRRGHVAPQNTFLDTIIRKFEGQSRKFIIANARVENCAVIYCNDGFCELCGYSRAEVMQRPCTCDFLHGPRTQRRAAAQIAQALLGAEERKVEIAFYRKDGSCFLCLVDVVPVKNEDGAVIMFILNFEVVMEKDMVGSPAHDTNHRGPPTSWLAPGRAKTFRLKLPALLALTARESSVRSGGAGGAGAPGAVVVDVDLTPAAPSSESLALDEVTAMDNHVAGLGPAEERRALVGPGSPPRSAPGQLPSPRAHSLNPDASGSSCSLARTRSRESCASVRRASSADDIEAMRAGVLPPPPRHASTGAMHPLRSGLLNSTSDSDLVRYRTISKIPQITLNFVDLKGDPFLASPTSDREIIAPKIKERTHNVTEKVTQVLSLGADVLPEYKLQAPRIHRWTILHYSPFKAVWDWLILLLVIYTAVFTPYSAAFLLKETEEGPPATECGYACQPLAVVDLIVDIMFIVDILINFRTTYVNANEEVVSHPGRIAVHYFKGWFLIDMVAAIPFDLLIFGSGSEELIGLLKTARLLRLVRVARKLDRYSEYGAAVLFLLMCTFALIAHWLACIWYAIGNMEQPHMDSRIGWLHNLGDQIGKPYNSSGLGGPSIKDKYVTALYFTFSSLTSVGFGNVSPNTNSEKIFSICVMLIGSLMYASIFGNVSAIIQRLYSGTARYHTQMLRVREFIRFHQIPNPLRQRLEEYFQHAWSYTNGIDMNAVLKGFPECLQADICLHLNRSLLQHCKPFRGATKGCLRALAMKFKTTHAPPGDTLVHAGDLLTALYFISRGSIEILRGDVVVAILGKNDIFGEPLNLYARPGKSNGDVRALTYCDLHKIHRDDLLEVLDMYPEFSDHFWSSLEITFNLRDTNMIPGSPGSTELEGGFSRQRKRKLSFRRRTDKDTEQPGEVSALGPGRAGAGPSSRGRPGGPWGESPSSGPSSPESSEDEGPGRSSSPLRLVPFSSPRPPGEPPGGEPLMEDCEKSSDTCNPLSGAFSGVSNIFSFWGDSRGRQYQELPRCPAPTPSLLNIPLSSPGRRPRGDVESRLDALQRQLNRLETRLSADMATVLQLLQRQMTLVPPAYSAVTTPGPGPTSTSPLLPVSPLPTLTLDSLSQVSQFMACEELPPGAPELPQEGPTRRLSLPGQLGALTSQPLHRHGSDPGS
row,SMILES,"hERG current change (%, negative = inhibition) at 10uM"
1,CCn1c(CNC(=O)C23CC4CC(CC(C4)C2)C3)nnc1SC,15.3%
2,CCCC(=O)Nc1ccccc1NC(=O)CN(C)S(=O)(=O)c1ccccc1,6.95%
3,Cc1nc(-c2ccc(NS(=O)(=O)c3ccccc3)cc2)cs1,10.6%
4,CC(C)(C)OC(=O)NCCCC[C@H](NC(=O)c1nc[nH]c1C(=O)NC1CCN(C(=O)OC(C)(C)C)CC1)C(=O)OC(C)(C)C,-0.245%
5,O=C(O)Cn1cc(/C=C2\C(=O)NC(=O)N(c3ccc(Cl)cc3)C2=O)c2ccccc21,12.4%
6,O=C1/C(=C/c2ccc(N3CCCC3)cc2)NC(=S)N1C1CC1,-10%
7,COc1ccc(/C=C/C(=O)OCC(=O)NCCNC(=O)COC(=O)/C=C/c2ccc(OC)cc2)cc1,20.6%
8,Cc1ccc(-n2nc3c(=O)n(C(C)C(=O)NCc4ccc5c(c4)OCO5)nc(C)c3c2C)cc1 (stereo not drawn),1.78%
9,O=S(=O)(c1ccccc1)n1ccc2ccccc21,-6.14%
10,CC(=O)c1ccc(-n2nnnc2SCC(=O)Nc2cccc(NC(=O)c3ccco3)c2)cc1,6.89%
11,CCOC(=O)/C=C1\NC(=O)CS1,16.4%
12,O=C(CCNS(=O)(=O)c1ccc(Cl)cc1)Nc1ccncc1,6.41%
13,CC(C)(C)OC(=O)CNC(=O)c1[nH]cnc1C(=O)N[C@@H](Cc1ccccc1)C(=O)OCc1ccccc1,12.7%
14,CCN(CC)c1ccc(/C=N/NC(=O)c2ccoc2C)c(O)c1,0.0712%
15,O=C(c1cnn(Cc2ccccc2)c1)N1CCN(S(=O)(=O)/C=C/c2ccccc2)CC1,-34.4%
16,Cc1ccc(-n2nnnc2SCC(=O)Nc2ncc(Cc3ccccc3Cl)s2)cc1,0.671%
17,COc1cccc(C2CC(c3cccs3)=NN2C(=O)CSc2nc3c(cnn3-c3ccc(F)cc3)c(=O)[nH]2)c1OC (stereo not drawn),6.18%
18,O=C(c1ccc(N2CCCC2=O)cc1)N1CCCCCC1,9.74%
19,Nn1c(CSc2ccccn2)nc2ccccc2c1=O,7.54%
20,COc1ccccc1-c1nnc(SCC(=O)N2CCCCC2)o1,5.84%
21,O=C(NCCc1cccnc1)C1CCC(=O)N(Cc2cccc(C(F)(F)F)c2)C1 (stereo not drawn),-8.64%
22,O=C(O)c1ccc(NC(=S)NC2CCCCC2)cc1,13.6%

row,SMILES,"hERG current change (%, negative = inhibition) at 10uM"
1,CC(C)(C)c1ccc(C2C3=C(CCCC3=O)NC3=C2C(=O)c2ccccc23)cc1 (stereo not drawn),-3.27%
2,CC(C)CC1c2[nH]c3ccccc3c2CCN1C(=O)C1CCOCC1 (stereo not drawn),5.43%
3,COc1cc(C(=O)NCC(=O)N/N=C/c2cccc(OC(=O)c3ccco3)c2)cc(OC)c1OC,1.18%
4,O=C(O)c1ccc(NS(=O)(=O)c2ccc(N3C(=O)CCC3=O)cc2)cc1,2.04%
5,CCOc1nc(NC(C)C)nc(NC(C)C)n1,-2.17%
6,C=CCn1c(-c2cccc3ccccc23)n[nH]c1=S,-1.63%
7,CCn1nnc(NC(=O)Cc2ccc(Cl)cc2)n1,3.52%
8,O=S(=O)(c1ccccc1)c1nc(-c2ccco2)oc1NCc1ccco1,5.67%
9,CCCCn1c(SCC(=O)Nc2nnc(C)s2)nnc1-c1ccncc1,26.2%
10,CCn1c(SC(C)C(=O)Nc2ccc(N3CCOCC3)cc2)nnc1C1CC1 (stereo not drawn),-6.01%
11,CCS(=O)(=O)n1nc(-c2ccco2)nc1SC,10.6%
12,O=C(COc1ccc(Br)cc1)Nc1ccncc1,1.17%
13,COC(=O)c1cn(C(=O)c2ccc(OC)c(OC)c2)c2ccccc12,-5.12%
14,N/C(=N\OS(=O)(=O)c1ccc(Cl)cc1)c1cccnc1,2.35%
15,COc1cccc(N2CC(NC(=O)C(=O)c3c(C)[nH]c4ccccc34)CC2=O)c1 (stereo not drawn),13.2%
16,COc1ccc(N2CCN(C(=O)COCc3cc(-c4ccc5c(c4)OCO5)on3)CC2)cc1,2.67%
17,Cc1ccc(NC(=O)CSc2n[nH]c(N)n2)cc1S(=O)(=O)N1CCOCC1,-1.98%
18,O=C(O)CCC(=O)N1CCC(C(=O)c2cccc(Cl)c2)CC1,21.4%
19,COc1ccccc1C(=O)N=C1NC(=O)CC2C(=O)NCCN12 (stereo not drawn),3.2%
20,COc1cc(/C=N/Nc2ncc(C(F)(F)F)cc2Cl)cc(OC)c1O,-64.8%
21,CS(=O)(=O)c1ccc(-c2csc(-c3cccnc3)n2)cc1,-30.1%
22,Cc1cccc(C)c1OCC(=O)Nc1ccccc1N1CCCCC1,12.7%

row,SMILES,"hERG current change (%, negative = inhibition) at 10uM"
1,COc1ccc(NC(=O)Cc2ccsc2)cc1S(=O)(=O)N1CCCCC1,-25.8%
2,CCCn1c(SCC(=O)Nc2cc(Cl)ccc2Cl)n[nH]c1=O,5.11%
3,COc1ccccc1-c1cc(C(F)(F)F)nc(S(=O)(=O)CCCC(=O)NCc2ccc(F)cc2)n1,-34.7%
4,O=c1[nH]cc(S(=O)(=O)N2CCCc3ccccc32)c(=O)[nH]1,-8.39%
5,CCOc1ccc2c(c1)c(C(C)=O)c(C)n2-c1ccccc1,-19.4%
6,Cc1nnc(NC(=O)C2CC(=O)N(c3ccc4c(c3)OCCO4)C2)s1 (stereo not drawn),-1.13%
7,CCc1c(C)nc2cc(-c3cccc(Br)c3)[nH]n2c1=O,-3.6%
8,COc1cc(-c2noc(C)c2C#Cc2nccn2C)cc(OC)c1OC,-53.4%
9,Cc1ccc(S(=O)(=O)NNC(=O)c2ccc(NC(=O)C3CC3)cc2)cc1,11.6%
10,Cc1ccc(NC2CCCN(C(=O)CCN3CCOCC3)C2)cc1C (stereo not drawn),16.1%
11,CCc1ccc(NCCC(=O)c2ccc(Cl)cc2)cc1,10.2%
12,FC(F)(F)c1cc(-c2ccccc2)nc(N2CCCCC2)n1,19.1%
13,O=C(CCCc1c[nH]c2ccccc12)NCC1COc2ccccc2O1 (stereo not drawn),3.31%
14,C/C(=N\N=C(/N)SC1CC(=O)N(c2ccc(Cl)cc2)C1=O)c1cccs1 (stereo not drawn),2.58%
15,CCn1nc2cc(C(=O)NCc3cc(C(F)(F)F)cc(C(F)(F)F)c3)ccc2c1OC,12.9%
16,COc1ccc(CCNC(=O)Cn2cnc3c(nnn3Cc3ccc(C)cc3)c2=O)cc1OC,15.4%
17,Cc1cc(OC(F)F)ccc1NC(=S)NCCc1ccccc1,-3.61%
18,CC(C)Cc1cc(C(=O)N2CCC(N3CCC(C(=O)N4CCOCC4)CC3)CC2)n[nH]1,-18.6%
19,COc1cccc(CNc2ncc(C(=O)Nc3cc(OC)c(OC)c(OC)c3)c(C)n2)c1,14%
20,COc1ccc2oc(C(=O)OCC(=O)Nc3cc(S(=O)(=O)N4CCOCC4)ccc3C)c(C)c2c1,11.6%
21,O=C(c1ccc(F)cc1)C1CCN(C(=O)N2CCOCC2)CC1,-7.19%
22,O=C(O)c1ccccc1-c1nc2cc(Cl)ccc2c(=O)n1O,26.2%

row,SMILES,"hERG current change (%, negative = inhibition) at 10uM"
1,CC(C)OC(=O)NCCOC(=O)Nc1cccc(Cl)c1,9.33%
2,COc1ccc(CC(=O)N/N=C(\C)c2ccc(Br)s2)cc1,14.5%
3,COc1cc2cc3c(N)c(C(=O)NCc4ccco4)sc3nc2cc1OC,-25.5%
4,CCN1CCN(C(c2ccccc2)c2nnnn2Cc2ccc(OC)cc2)CC1.Cl (stereo not drawn),10.7%
5,CCCn1c(SCC(=O)O)nc2ccccc21,3.15%
6,O=C(c1ccccc1NS(=O)(=O)c1ccccc1)N1CCCCCC1,16.3%
7,O=C(c1ccccc1)c1c(O)cc(-c2ccccc2)oc1=O,12.1%
8,CCOC(=O)COn1c(=O)c(-c2ccc(C)cc2)[n+]([O-])c2ccccc21,20.1%
9,CCC(=O)Nc1ccc(NC(=O)c2ccc3ccccc3c2)cc1,20.3%
10,O=C(CCN1C(=O)C2CC=CCC2C1=O)Nc1nccs1 (stereo not drawn),-3.6%
11,COc1ccc(OC)c(-n2c(CN3CCC(C(N)=O)CC3)nc3ccccc3c2=O)c1,-0.126%
12,COc1ccc(C(=O)N2CCCC(N3CCN(c4ccccc4OC)CC3)C2)c(OC)n1 (stereo not drawn),4.8%
13,CCOC(=O)COc1nc2c(c(-c3ccco3)c1C#N)CCc1ccccc1-2,7.82%
14,Cc1cc(N2CCOCC2)nc2ccc(NC(=O)CCC(=O)N3CCN(c4ccccc4)CC3)cc12,-18.3%
15,CC1CCN(S(=O)(=O)c2cccc(C(=O)N3CCN(c4ccc(F)cc4)CC3)c2)CC1,-65.4%
16,Cc1ccc(C)c(NC2=C(Cl)C(=O)OC2OC(=O)c2ccco2)c1 (stereo not drawn),-23.2%
17,COc1ccc(/C=C/C(=O)NC(=S)NNC(=O)c2cc(OC)c(OC)c(OC)c2)cc1OC,0.258%
18,O=C1N/C(=N/N=C/c2ccccc2)SC1(c1ccccc1)c1ccccc1,4.87%
19,O=C(O)c1ccc(/C=N/NC(=S)NCCN2CCOCC2)cc1,12.3%
20,CCCC(=O)Nc1c2c(nn1-c1ccc(F)cc1)CS(=O)(=O)C2,3.76%
21,CC(=O)OC(C(=O)NC1CCCCC1)c1ccncc1 (stereo not drawn),-11.7%
